Experimental data reported in the supplement of paper PMC3334620.
In all, about 33,000 sequences were measured (“E-score (-0.5 to 0.5)”: median about -0.012, highest 2% from about 0.27 on). This is one part of the list.

What follows are sequences tested against T1, Vhr1 (UniProt P40522) (assay: PBM E-score (8-mer binding enrichment) (E-score (-0.5 to 0.5)); higher = stronger / more preferred TF binding; most listed sequences are background and not binding sites). Conditions: protein concentration: 200 nM; construct: GST-full length.
T1 sequence: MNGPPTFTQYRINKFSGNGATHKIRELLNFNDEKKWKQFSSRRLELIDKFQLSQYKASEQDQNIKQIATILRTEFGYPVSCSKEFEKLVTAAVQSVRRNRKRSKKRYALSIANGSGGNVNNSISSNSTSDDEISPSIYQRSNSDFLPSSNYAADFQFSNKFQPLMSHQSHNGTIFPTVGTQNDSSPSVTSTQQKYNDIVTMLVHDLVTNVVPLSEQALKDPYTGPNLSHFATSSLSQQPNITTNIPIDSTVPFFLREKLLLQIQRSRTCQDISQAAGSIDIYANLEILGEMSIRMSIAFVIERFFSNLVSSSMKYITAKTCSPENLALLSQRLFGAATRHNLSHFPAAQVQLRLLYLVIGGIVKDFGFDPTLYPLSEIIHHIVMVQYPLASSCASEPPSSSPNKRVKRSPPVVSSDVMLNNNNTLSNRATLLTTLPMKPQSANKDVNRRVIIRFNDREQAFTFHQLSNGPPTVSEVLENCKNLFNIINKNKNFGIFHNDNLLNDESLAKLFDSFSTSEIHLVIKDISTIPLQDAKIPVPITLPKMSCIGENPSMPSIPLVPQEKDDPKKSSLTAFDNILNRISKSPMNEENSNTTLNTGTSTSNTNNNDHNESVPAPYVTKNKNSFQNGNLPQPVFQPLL
In short: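 Full-length yeast transcription factors or their DNA-binding domains, GST-tagged and expressed with PURExpress, were applied at about 100-200 nM to universal all-10-mer Agilent arrays. These arrays had been made double-stranded by primer extension on fresh or once-stripped slides. Detection used fluorescent anti-GST, normalisation used masliner, and E-scores for ungapped eight-base words pooled with reverse complements came from the Universal PBM Analysis Suite.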

First: CTCCTTAC
Second: AGCGTCCT
The “PBM E-score” value of the first is lower: -0.221 for the first, -0.0788 for the second.

Compared with GTTTTTCA, ACATTAAC is higher in “PBM E-score” value: -0.102 for the first, 0.234 for the second.

Going from GTCCTCAC to CTCGTCTA, the “PBM E-score” value falls from 0.036 to -0.159.

Compared with AAGTACAC, AAGCAATA is lower in “PBM E-score” value: 0.086 for the first, -0.0875 for the second.

Compared with ATAGGCCC, AACGGCTA is lower in “PBM E-score” value: -0.0678 for the first, -0.148 for the second.

First: GGCAGAAA
Second: CGCTAGTC
The “PBM E-score” value of the first is higher: 0.122 for the first, -0.146 for the second.

Going from ATTCAAGA to GACGAACA, the “PBM E-score” value falls from -0.0262 to -0.0986.

First: CAAAAGGA
Second: CGCACATA
The “PBM E-score” value of the first is lower: -0.2 for the first, -0.0814 for the second.

Compared with AGAGAGCT, CCAGGCCG is higher in “PBM E-score” value: -0.272 for the first, 0.0428 for the second.

Compared with AGTTGGGG, AGAAGGTG is higher in “PBM E-score” value: 0.0375 for the first, 0.1 for the second.

First: AGTAGGAG
Second: GGGGTAAA
The “PBM E-score” value of the first is higher: -0.0476 for the first, -0.139 for the second.

First: AGAAAGCT
Second: CCGCTAGA
The “PBM E-score” value of the first is higher: -0.0857 for the first, -0.218 for the second.

Going from GGGACTGA to CTGGATGA, the “PBM E-score” value rises from -0.174 to -0.0299.

Compared with AGGCATCA, CGAAGAGA is higher in “PBM E-score” value: -0.181 for the first, -0.124 for the second.

Compared with ACGCCCAG, CGCCGACC is lower in “PBM E-score” value: 0.0807 for the first, -0.0628 for the second.

Going from CCGCACCC to TCAGATAA, the “PBM E-score” value falls from 0.118 to 0.0383.

Going from AACAGTCC to AGATCGCA, the “PBM E-score” value falls from 0.0181 to -0.0736.

Compared with AGGAAGCG, ACGGACCT is higher in “PBM E-score” value: 0.0063 for the first, 0.00876 for the second.

Compared with GGCGGGCA, GGTTATAC is lower in “PBM E-score” value: 0.198 for the first, -0.0144 for the second.

Compared with CACGTCTA, CGGTGCGC is higher in “PBM E-score” value: 0.126 for the first, 0.198 for the second.

First: CACTGCTC
Second: AAGACACT
The “PBM E-score” value of the first is lower: -0.0274 for the first, 0.0796 for the second.

Going from AGGTCTGG to ATATACCC, the “PBM E-score” value rises from -0.0901 to 0.204.

First: CGCGAGCG
Second: ATGAGAAT
The “PBM E-score” value of the first is lower: -0.106 for the first, 0.0244 for the second.

Going from CTATACAG to CGCACGAG, the “PBM E-score” value falls from -0.0143 to -0.0371.

First: AGTTCTTA
Second: ACACTCGG
The “PBM E-score” value of the first is lower: -0.145 for the first, 0.158 for the second.

Going from GCTGGGAC to ATACACTG, the “PBM E-score” value rises from -0.0717 to 0.19.

First: GACATACC
Second: GCACCCTA
The “PBM E-score” value of the first is higher: -0.0164 for the first, -0.0666 for the second.

Going from AATCCGTA to AATCTTTC, the “PBM E-score” value rises from -0.133 to 0.00115.

First: GTATGAAC
Second: AATCACTG
The “PBM E-score” value of the first is lower: 0.038 for the first, 0.374 for the second.

Compared with GGTTTCTA, CTGTGTTA is higher in “PBM E-score” value: -0.122 for the first, 0.169 for the second.

Going from ATTATCCA to GATTTAAC, the “PBM E-score” value falls from 0.0781 to -0.111.

Going from CTACGGCA to GTCGTTCA, the “PBM E-score” value rises from -0.118 to -0.0227.

Going from CCGGCCAA to ATAGTTAC, the “PBM E-score” value rises from -0.0889 to 0.132.

Going from ACAGGTCG to AACCAACC, the “PBM E-score” value rises from -0.106 to 0.138.

Going from AATTGTGG to ATTAATCG, the “PBM E-score” value rises from 0.00128 to 0.253.

Going from GGCTCTGA to GTGGGGCA, the “PBM E-score” value rises from 0.0033 to 0.118.

Going from ATCACTTA to CTGTAGGC, the “PBM E-score” value falls from -0.0248 to -0.0958.

First: TCTCATCA
Second: CACGTTAC
The “PBM E-score” value of the first is lower: -0.131 for the first, 0.0548 for the second.

Compared with CTTACTTA, GGTGTAAA is higher in “PBM E-score” value: -0.176 for the first, -0.105 for the second.

Compared with CTACACTA, CAGTGGAC is lower in “PBM E-score” value: 0.166 for the first, 0.0239 for the second.

Going from CGGAGCAG to ATGCCTCA, the “PBM E-score” value falls from 0.069 to -0.0848.

Going from GCTGGCGA to TAGTCGAA, the “PBM E-score” value rises from -0.0575 to 0.0212.

Compared with AGTACGAA, CGCCAGCA is lower in “PBM E-score” value: -0.0408 for the first, -0.107 for the second.

First: TATATGCA
Second: GTAGTAGA
The “PBM E-score” value of the first is higher: 0.071 for the first, 0.0348 for the second.

First: CAACAACA
Second: CCTGCATC
The “PBM E-score” value of the first is higher: 0.234 for the first, -0.00559 for the second.

Compared with AATGCCAG, ATGCGTAG is higher in “PBM E-score” value: -0.154 for the first, -0.0265 for the second.

First: ACGATACT
Second: CGGCGAGA
The “PBM E-score” value of the first is lower: -0.0712 for the first, -0.0125 for the second.

Going from ATGCCACC to CTACATAC, the “PBM E-score” value falls from 0.126 to 0.0864.

Compared with ATTATAGC, CCCACCAA is higher in “PBM E-score” value: 0.0196 for the first, 0.141 for the second.

Compared with AAGGCCCT, CTCAAAGC is higher in “PBM E-score” value: -0.164 for the first, -0.0228 for the second.

Compared with AGTCGCAA, ATTAATAG is lower in “PBM E-score” value: 0.238 for the first, 0.0496 for the second.

Going from GAGAGCTC to AGATCCAG, the “PBM E-score” value rises from -0.261 to 0.0668.

First: ATCAGTTC
Second: AATCGCGT
The “PBM E-score” value of the first is lower: 0.081 for the first, 0.124 for the second.

Going from CTCCACTA to AGTTGGAA, the “PBM E-score” value falls from 0.0341 to -0.0358.

First: AATCGGTA
Second: TCACCTAA
The “PBM E-score” value of the first is lower: -0.119 for the first, 0.085 for the second.

Going from CATTCGCA to GAATGTGA, the “PBM E-score” value rises from -0.0683 to -0.061.

Going from TGGTCCAA to CTAGGGAG, the “PBM E-score” value rises from -0.0804 to 0.0102.

Compared with GACCTAAA, AGGTAGGA is higher in “PBM E-score” value: -0.213 for the first, -0.148 for the second.

Compared with GAAAGCAA, ACACGATA is higher in “PBM E-score” value: -0.122 for the first, -0.0343 for the second.

Compared with AGCGTACG, AGGGTCAT is higher in “PBM E-score” value: -0.135 for the first, -0.00303 for the second.

Compared with AACGTCGT, GTGTAGTA is higher in “PBM E-score” value: -0.104 for the first, 0.208 for the second.

First: CTGGCTGA
Second: ACCTTAGC
The “PBM E-score” value of the first is higher: 0.143 for the first, 0.113 for the second.

Compared with CCGTAAGA, CTAGAACA is higher in “PBM E-score” value: -0.167 for the first, -0.0367 for the second.

Compared with AACCCCGA, TGAGCGAA is higher in “PBM E-score” value: -0.0129 for the first, 0.00769 for the second.

First: GGGCCCCC
Second: AAACTGGA
The “PBM E-score” value of the first is lower: -0.128 for the first, -0.094 for the second.

First: CATTACAA
Second: TCAACCGA
The “PBM E-score” value of the first is higher: 0.0155 for the first, -0.023 for the second.

Going from CAGTATGG to CGATCGTC, the “PBM E-score” value falls from 0.0483 to -0.0324.

Compared with CCACAGTC, CAGCGTAA is lower in “PBM E-score” value: 0.0789 for the first, -0.118 for the second.

Going from AAACATAT to CCCGTCCC, the “PBM E-score” value rises from 0.164 to 0.165.

First: CGAGCATA
Second: GTAACTGA
The “PBM E-score” value of the first is higher: -0.036 for the first, -0.0714 for the second.

First: CAAGGCTC
Second: AAGTGCCA
The “PBM E-score” value of the first is lower: -0.196 for the first, -0.145 for the second.

Going from GTTGTGGA to CGAAAAAC, the “PBM E-score” value falls from -0.00265 to -0.0634.

Going from GGATGCAA to AAACGTCG, the “PBM E-score” value rises from -0.176 to -0.159.

First: AATTATGT
Second: GAACTGGC
The “PBM E-score” value of the first is higher: 0.0928 for the first, -0.125 for the second.

Going from CCGAATCG to AGACCACA, the “PBM E-score” value rises from 0.101 to 0.268.

Going from AGAAGAGC to ACTACGCG, the “PBM E-score” value rises from -0.169 to 0.0604.

Going from ATAGGGGC to ACCGTTCC, the “PBM E-score” value rises from -0.0513 to 0.0141.

First: CCGTGAGC
Second: AGAGACGA
The “PBM E-score” value of the first is lower: -0.279 for the first, -0.048 for the second.

Compared with GCAGTGGC, CACCAGTA is higher in “PBM E-score” value: 0.0117 for the first, 0.0813 for the second.

First: ATTATAAA
Second: CCTAGCGA
The “PBM E-score” value of the first is higher: -0.136 for the first, -0.215 for the second.

Going from CGGTTAAA to ACTGCATC, the “PBM E-score” value rises from -0.149 to 0.211.

Compared with GAGGTTGA, TTGAGCAA is higher in “PBM E-score” value: -0.131 for the first, -0.0517 for the second.

Compared with GCAGAGAC, GAGTACGC is higher in “PBM E-score” value: -0.143 for the first, -0.118 for the second.

Compared with CAGACCAC, TACCGAGA is lower in “PBM E-score” value: 0.129 for the first, -0.0376 for the second.

Compared with AAGCCCCG, AATTTGAC is lower in “PBM E-score” value: -0.0583 for the first, -0.0801 for the second.

Compared with GACTCAGA, ACGATAAC is lower in “PBM E-score” value: 0.308 for the first, 0.144 for the second.
